Reference: the supplement of paper PMC10126150
Values marked as one replicate rest on one cluster of the flow cell; about a third of the high ones do not repeat.

Test system: ATP
Test: switch fluorescence ratio, 500 uM ATP over buffer (Cy3 cluster intensity, sum of 5 cycles each) (fold (ratio)); higher = stronger signal-on switching upon ATP binding; sequences stand for … in TCGTCGGCAGCGTCAGATGTGTATAAGAGACAGTTTTTTTTTTTTTTTTTTTTTTTTT…TC
Details: aptamer strand: ATP DNA aptamer (quencher-CACCTGGGGGAGTATTGCGGAGGAAGG + anchor), 100 nM annealed; ATP concentration: 500 uM; one replicate
Outline: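 The quencher-labelled ATP aptamer, at 100 nM, was annealed to Cy3-labelled switching-strand clusters on a modified Illumina MiSeq flow-cell. The clusters were imaged in selection buffer, then after 15 min with 500 uM ATP at 22 °C, and this buffer/ATP cycle ran five times with NaOH stripping and re-annealing between runs. Per-cluster fluorescence ratios, summed target-cycle over summed buffer-cycle Cy3 intensity, were averaged per switch-domain sequence. Clusters outside 100-1000 RFU were excluded.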
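Also: ATP exposure 15 min at 22 °C before imaging.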

Sequence GGACTCACGG has a switch fluorescence ratio of 1.09.

With CACTACAGCC the switch fluorescence ratio was 1.07.

Work on GTAGTATCGG yielded a switch fluorescence ratio of 1.02.

In the case of TTTGCGTGAT, the switch fluorescence ratio is reported as 1.04.

For GGGGGACCGC, the switch fluorescence ratio was 0.967.

TTCGAGGCGC showed a switch fluorescence ratio of 1.11.

With CATCGCGCTG the switch fluorescence ratio was 1.03.

ATTTAGCAAT was tested, and the switch fluorescence ratio was 2.73.

Work on GATTCGTATA yielded a switch fluorescence ratio of 0.991.

TTTTGCAAGG was tested, and the switch fluorescence ratio was 0.987.

CAGGAAGACG gave a switch fluorescence ratio of 0.977.

CGGTGAACAT was tested, and the switch fluorescence ratio was 0.977.

Sequence CGCGGATGAG has a switch fluorescence ratio of 1.01.

CCAGTATGCT gave a switch fluorescence ratio of 0.949.

TAAGATCAAT was tested, and the switch fluorescence ratio was 1.16.

Sequence CGGGCGGCGC has a switch fluorescence ratio of 0.968.

In the case of CGTCGGCCCA, the switch fluorescence ratio is reported as 0.989.

In the case of AAAAACTCGC, the switch fluorescence ratio is reported as 1.23.

CGATACCGGA showed a switch fluorescence ratio of 1.02.

CTAACGAAGC was tested, and the switch fluorescence ratio was 1.39.

CGAAAGGCGT gave a switch fluorescence ratio of 1.01.

Sequence CCCTTCCAT has a switch fluorescence ratio of 1.27.

Sequence TACCTTGACA has a switch fluorescence ratio of 1.09.

For AGTCCTCTTG, the switch fluorescence ratio was 1.

With AATAAAGTCG the switch fluorescence ratio was 0.994.

In the case of ATCAGAAGAC, the switch fluorescence ratio is reported as 1.08.

TAACTGGGGA showed a switch fluorescence ratio of 1.02.

Work on GCATTGCGCA yielded a switch fluorescence ratio of 1.

For CACAGGATCG, the switch fluorescence ratio was 0.982.

With CTATTTAAGC the switch fluorescence ratio was 1.01.

In the case of AAAAAGGTGC, the switch fluorescence ratio is reported as 0.949.

GCGCTATCGC gave a switch fluorescence ratio of 1.03.

For TACGGATGTT, the switch fluorescence ratio was 0.984.

GCAGGCAGGG was tested, and the switch fluorescence ratio was 1.02.

With TCACGGCTCT the switch fluorescence ratio was 1.06.

For GATCCCCGAG, the switch fluorescence ratio was 1.04.

TGGTGCGTGG showed a switch fluorescence ratio of 0.949.

With TACTACGTCG the switch fluorescence ratio was 0.999.

With ATCGCCCAAC the switch fluorescence ratio was 1.05.

In the case of CCATTCTGAG, the switch fluorescence ratio is reported as 1.01.

Sequence GCATGTGCAG has a switch fluorescence ratio of 1.04.

Sequence GGAAGGGATA has a switch fluorescence ratio of 1.01.

With CAGATACGT the switch fluorescence ratio was 1.05.

For CCCTCATCGC, the switch fluorescence ratio was 1.29.

Sequence TTGGGCAAGT has a switch fluorescence ratio of 1.06.

For TCCTTGTGAG, the switch fluorescence ratio was 1.04.

For GACGGTTGGC, the switch fluorescence ratio was 1.02.

GAGCCTCAAG was tested, and the switch fluorescence ratio was 0.978.

Work on ATTATACATT yielded a switch fluorescence ratio of 0.962.

Work on TAGTGCCAAA yielded a switch fluorescence ratio of 1.02.

CGATACGAGT was tested, and the switch fluorescence ratio was 1.06.

With GGACTCGACC the switch fluorescence ratio was 1.04.

In the case of TTGCACACCG, the switch fluorescence ratio is reported as 1.07.

Work on ATAGACCCGC yielded a switch fluorescence ratio of 1.06.

In the case of GAAGGGCCTT, the switch fluorescence ratio is reported as 1.01.

Sequence GGAAAAATTT has a switch fluorescence ratio of 0.987.

TAAGCTCACC gave a switch fluorescence ratio of 1.13.

CCTGCACACG was tested, and the switch fluorescence ratio was 1.48.

GCAGGGCAAG was tested, and the switch fluorescence ratio was 0.992.

Work on GGCCCCGCGG yielded a switch fluorescence ratio of 0.978.

For TTCATGAACC, the switch fluorescence ratio was 0.986.

In the case of GTGGTCTGTT, the switch fluorescence ratio is reported as 0.991.

Sequence ACAGCACCGT has a switch fluorescence ratio of 1.36.

For CATATTGAT, the switch fluorescence ratio was 1.05.

With ATGTCGAGGG the switch fluorescence ratio was 1.

In the case of TCTGAAAGGT, the switch fluorescence ratio is reported as 1.01.

GTAATCTACA showed a switch fluorescence ratio of 1.04.

Work on GCGGGCATGC yielded a switch fluorescence ratio of 1.11.

GGGACCCTTT gave a switch fluorescence ratio of 1.02.

GACATCACT was tested, and the switch fluorescence ratio was 1.34.

GGGGTAGCAG showed a switch fluorescence ratio of 0.988.

For GTCGTTGTAG, the switch fluorescence ratio was 1.03.

With GACGGTGTG the switch fluorescence ratio was 0.953.

Work on CGGGTGAGAG yielded a switch fluorescence ratio of 1.07.

TTCAAACTGG gave a switch fluorescence ratio of 1.06.

Work on CTGATACAG yielded a switch fluorescence ratio of 1.03.

Work on CTAGTGCAAG yielded a switch fluorescence ratio of 1.03.

Work on CGTTATGT yielded a switch fluorescence ratio of 0.992.

Work on CAATAGAATG yielded a switch fluorescence ratio of 1.02.

CCGTAGAACG was tested, and the switch fluorescence ratio was 1.02.

Work on GTTATATAA yielded a switch fluorescence ratio of 1.02.

AACTAAATTT gave a switch fluorescence ratio of 1.02.

CAATCCTGTT gave a switch fluorescence ratio of 1.03.

With CAATCCCATC the switch fluorescence ratio was 1.05.

For AAAAACGCTC, the switch fluorescence ratio was 0.989.

For ATAATCTCAG, the switch fluorescence ratio was 1.01.

CTTTAACACT showed a switch fluorescence ratio of 1.09.

In the case of TTGAACGCTT, the switch fluorescence ratio is reported as 0.993.

Sequence GATCGCACA has a switch fluorescence ratio of 1.62.

With CAGGCTGGTA the switch fluorescence ratio was 0.974.

Sequence ACTAGCTTG has a switch fluorescence ratio of 0.956.

With TCAGTAGT the switch fluorescence ratio was 1.09.

Sequence CTGGTAACAT has a switch fluorescence ratio of 1.01.

In the case of GCCAGGGTCG, the switch fluorescence ratio is reported as 1.02.

AACTCAAGGT gave a switch fluorescence ratio of 1.04.

CAAACTATGA gave a switch fluorescence ratio of 1.

GGACTTGAAT showed a switch fluorescence ratio of 1.03.

Sequence CAATTCTCCG has a switch fluorescence ratio of 1.08.

TACTGCAC was tested, and the switch fluorescence ratio was 1.5.

GTTATGGGCG gave a switch fluorescence ratio of 0.987.

TCAGGTGTCC gave a switch fluorescence ratio of 1.38.

Work on AATACAACGC yielded a switch fluorescence ratio of 1.03.

ACCTATGAGC showed a switch fluorescence ratio of 0.933.

In the case of TGTGGCATCA, the switch fluorescence ratio is reported as 0.992.

Work on TCTCACAGGG yielded a switch fluorescence ratio of 1.51.

Work on TACCGGTGTT yielded a switch fluorescence ratio of 1.04.

AAAAGGCGCA showed a switch fluorescence ratio of 1.09.

With ATTCCTGTCT the switch fluorescence ratio was 0.966.

With GTATCATCGC the switch fluorescence ratio was 0.991.

For CGGTATTGCT, the switch fluorescence ratio was 1.

TCCTTGGCGT gave a switch fluorescence ratio of 0.975.

CGTCGGTCAT was tested, and the switch fluorescence ratio was 0.944.

For GAAATCTGCA, the switch fluorescence ratio was 1.12.

Work on TATTTGCAGC yielded a switch fluorescence ratio of 1.07.

CTTTATGACC was tested, and the switch fluorescence ratio was 0.989.

For CGCCTCTCGA, the switch fluorescence ratio was 1.02.

AATTCATGG gave a switch fluorescence ratio of 0.984.

For CTCTTCAAAC, the switch fluorescence ratio was 2.1.

Work on GTCTAATATA yielded a switch fluorescence ratio of 1.03.

In the case of GCTAGTGAGC, the switch fluorescence ratio is reported as 1.01.

AGTTAAACGA was tested, and the switch fluorescence ratio was 0.999.

TGGCTGACTA was tested, and the switch fluorescence ratio was 0.993.

In the case of CAGTTACCAT, the switch fluorescence ratio is reported as 1.04.

Work on CGCACACGGA yielded a switch fluorescence ratio of 1.17.

TCATTGAGAG gave a switch fluorescence ratio of 0.991.

With TTGGGGACCA the switch fluorescence ratio was 1.

For CGTGCCGCTC, the switch fluorescence ratio was 1.05.

ATCTGAGAG showed a switch fluorescence ratio of 1.02.

Sequence GGGTAAGTTA has a switch fluorescence ratio of 1.02.

Sequence ACAAATTTCG has a switch fluorescence ratio of 1.03.

AGATTGGGAG showed a switch fluorescence ratio of 1.02.

Sequence TCGTATGGCT has a switch fluorescence ratio of 0.995.

TGGGTAGTCT showed a switch fluorescence ratio of 0.99.

Sequence ATCGCGACGC has a switch fluorescence ratio of 1.09.

GGGATGACAT gave a switch fluorescence ratio of 1.01.

GTCCTACCTT gave a switch fluorescence ratio of 1.11.

AGACGTTCTT showed a switch fluorescence ratio of 1.02.

In the case of ACAGTTCTCT, the switch fluorescence ratio is reported as 1.03.

CGTGCAAGCA gave a switch fluorescence ratio of 1.04.

Work on AGTGAAAAGA yielded a switch fluorescence ratio of 0.984.

Sequence GCGCTGTGGA has a switch fluorescence ratio of 1.07.

With CAATATTCCG the switch fluorescence ratio was 0.986.

For TTGCTACCGA, the switch fluorescence ratio was 1.06.

Work on AGTCTTGGAT yielded a switch fluorescence ratio of 1.01.

With GGTTAACCAT the switch fluorescence ratio was 1.02.

For TCATCTTACT, the switch fluorescence ratio was 1.05.

Work on GCCCTTAAGG yielded a switch fluorescence ratio of 0.917.

Sequence ATAGAAGATG has a switch fluorescence ratio of 0.996.

CCGTTGTTGG showed a switch fluorescence ratio of 1.05.

Work on CAGGAACCCA yielded a switch fluorescence ratio of 0.99.

Sequence TAGGGGAGG has a switch fluorescence ratio of 0.992.

For GGCCTTTAAC, the switch fluorescence ratio was 1.

For GGATCGGCCC, the switch fluorescence ratio was 0.968.
